Results on 25 compounds are retold here after patent US20230414771A1, “PREPARATION AND USE OF IMMUNOSTIMULATORY CONJUGATED COMPLEXES FOR TARGETED DELIVERY AND ACTIVATION” (YAFEI SHANGHAI BIOLOGY MEDICINE SCIENCE & TECHNOLOGY CO., …, priority 2020, published 2023).

The term solubility denotes how much of the substance goes into solution per volume.

Where a SMILES comes first, the peptide text is derived from it. The star is where a group is joined. Doxorubicin(3'-N) = COc1cccc2c1C(=O)c1c(O)c3c(c(O)c1C2=O)C[C@@](O)(C(=O)CO)C[C@@H]3O[C@H]1C[C@H](N*)[C@H](O)[C@H](C)O1; X4 = [NH3+][Pt-2]1([NH3+])[O]C(=O)C2(CN(*)C2)C(=O)[O]1; Hexanoyl(6-maleimido) = O=C1C=CC(=O)N1CCCCCC(=O)*; Butanoyl(4-maleimido) = O=C1C=CC(=O)N1CCCC(=O)*; Propanoyl(3-maleimido) = O=C1C=CC(=O)N1CCC(=O)*; PEG6 = NCCOCCOCCOCCOCCOCCOCCC(=O)O; X3 = O=C1C=CC(=O)N1CCOCCOCCC(=O)*; PEG4 = NCCOCCOCCOCCOCCC(=O)O; PEG3 = NCCOCCOCCOCCC(=O)O; PEG2 = NCCOCCOCCC(=O)O

A short description of the data set: Water solubility test (observation and HPLC). The format is physicochemical. The conditions noted are these: thermodynamic from solid; lyophilized compound dissolved in water; checked by observation and HPLC (>95%). The procedure:
The compounds prepared in accordance with the examples of the disclosure and the reference compounds C1, C2, C3 and C4 were lyophilized (−70° C.).
Consider `COc1cccc2c1C(=O)c1c(O)c3c(c(O)c1C2=O)C[C@@](O)(C(=O)CO)C[C@@H]3O[C@H]1C[C@H](NC(=O)[C@H](CC(C)C)NC(=O)[C@H](CC(N)=O)NC(=O)[C@H](C)NC(=O)[C@H](C)NC(=O)[C@H](CC(=O)O)NC(=O)CCOCCOCCOCCOCCOCCOCCNC(=O)CCCN2C(=O)C=CC2=O)[C@H](O)[C@H](C)O1` [QHL-084-DOX] ({Butanoyl(4-maleimido)-PEG6}-DAANL-{Doxorubicin(3'-N)}), for which the solubility is over 30 mg/mL.

In the case of `C[C@H](NC(=O)CCOCCOCCNC(=O)CCN1C(=O)C=CC1=O)C(=O)N[C@@H](C)C(=O)N[C@@H](CC(N)=O)C(=O)Nc1ccc(COC(=O)OCC(=O)[C@]2(O)CCC3[C@H]4CCC5=CC(=O)C=C[C@@]5(C)C4C(=O)C[C@]32C)cc1` (stereo partly shown) [QHL-086-prednisone], the solubility was over 10 mg/mL.

For `COc1cccc2c1C(=O)c1c(O)c3c(c(O)c1C2=O)C[C@@](O)(C(=O)CO)C[C@@H]3O[C@H]1C[C@H](NC(=O)[C@H](CC(C)C)NC(=O)[C@H](CC(N)=O)NC(=O)[C@H](C)NC(=O)[C@H](C)NC(=O)[C@H](CCC(=O)O)NC(=O)CCOCCOCCOCCOCCNC(=O)CCN2C(=O)C=CC2=O)[C@H](O)[C@H](C)O1` [QHL-051-DOX] ({Propanoyl(3-maleimido)-PEG4}-EAANL-{Doxorubicin(3'-N)}), the solubility is over 25 mg/mL.

Turning to `CO[C@@]12[C@@H]3N[C@@H]3CN1C1=C(C(=O)C(NC(=O)OCc3ccc(NC(=O)[C@@H](CC(N)=O)NC(=O)[C@@H](C)NC(=O)[C@@H](C)NC(=O)CCOCCOCCOCCNC(=O)CCN4C(=O)C=CC4=O)cc3)=C(C)C1=O)[C@@H]2COC(N)=O` [QHL-089-mitomycin], the solubility is over 20 mg/mL.

In the case of `COc1cccc2c1C(=O)c1c(O)c3c(c(O)c1C2=O)C[C@@](O)(C(=O)CO)C[C@@H]3O[C@H]1C[C@H](NC(=O)[C@H](CC(C)C)NC(=O)[C@H](CC(N)=O)NC(=O)[C@H](C)NC(=O)[C@H](C)NC(=O)[C@H](CCSC)NC(=O)CCCCCN2C(=O)C=CC2=O)[C@H](O)[C@H](C)O1` [QHL-126-DOX] ({Hexanoyl(6-maleimido)}-MAANL-{Doxorubicin(3'-N)}), the solubility is over 2 mg/mL.

On to `C[C@@H](NC(=O)CCOCCOCCNC(=O)CCN1C(=O)C=CC1=O)C(=O)N[C@H](C)C(=O)N[C@H](CC(N)=O)C(=O)Nc1ccc(COC(=O)N(C)CCNC(=O)c2cc(Oc3ccc(NC(=O)Nc4ccc(Cl)c(C(F)(F)F)c4)c(F)c3)ccn2)cc1` [QHL-086-compound b], for which the solubility was over 20 mg/mL.

`COc1cccc2c1C(=O)c1c(O)c3c(c(O)c1C2=O)C[C@@](O)(C(=O)CO)C[C@@H]3O[C@H]1C[C@H](NC(=O)[C@H](CC(C)C)NC(=O)[C@H](CC(N)=O)NC(=O)[C@H](C)NC(=O)[C@H](C)NC(=O)[C@H](CCC(=O)O)NC(=O)CCN2C(=O)C=CC2=O)[C@H](O)[C@H](C)O1` [QHL-111-DOX] ({Propanoyl(3-maleimido)}-EAANL-{Doxorubicin(3'-N)}) displayed a solubility of over 10 mg/mL.

Regarding `COc1cccc2c1C(=O)c1c(O)c3c(c(O)c1C2=O)C[C@@](O)(C(=O)CO)C[C@@H]3O[C@H]1C[C@H](NC(=O)[C@H](CC(C)C)NC(=O)[C@H](CC(N)=O)NC(=O)[C@H](C)NC(=O)[C@H](C)NC(=O)[C@H](CCC(=O)O)NC(=O)CCCCCN2C(=O)C=CC2=O)[C@H](O)[C@H](C)O1` [QHL-117-DOX] ({Hexanoyl(6-maleimido)}-EAANL-{Doxorubicin(3'-N)}), the solubility is over 10 mg/mL.

Consider `CC(NC(=O)CCOCCOCCOCCNC(=O)CCCN1C(=O)C=CC1=O)C(=O)NC(C)C(=O)NC(CC(N)=O)C(=O)Nc1ccc(COC(=O)N2CC3(C2)C(=O)[O][Pt-2]([NH3+])([NH3+])[O]C3=O)cc1` (stereo not shown) [QHL-101-N-CBP], for which the solubility is over 20 mg/mL.

`COc1cccc2c1C(=O)c1c(O)c3c(c(O)c1C2=O)C[C@@](O)(C(=O)CO)C[C@@H]3O[C@H]1C[C@H](NC(=O)[C@H](CC(C)C)NC(=O)[C@H](CC(N)=O)NC(=O)[C@H](C)NC(=O)[C@H](C)NC(=O)[C@H](CCC(=O)O)NC(=O)CCOCCOCCOCCNC(=O)CCN2C(=O)C=CC2=O)[C@H](O)[C@H](C)O1` [QHL-045-DOX] ({Propanoyl(3-maleimido)-PEG3}-EAANL-{Doxorubicin(3'-N)}): the solubility was over 20 mg/mL.

Compound `CC(NC(=O)CN1C(=O)C=CC1=O)C(=O)NC(C)C(=O)NC(CC(N)=O)C(=O)Nc1ccc(COC(=O)N2CC3(C2)C(=O)[O][Pt-2]([NH3+])([NH3+])[O]C3=O)cc1` (stereo not shown) [QHL-146-N-CBP] registered a solubility of over 20 mg/mL.

In turn, `COc1cccc2c1C(=O)c1c(O)c3c(c(O)c1C2=O)C[C@@](O)(C(=O)CO)C[C@@H]3O[C@@H]1C[C@H](NC(=O)C(CC(C)C)NC(=O)[C@@H](CC(N)=O)NC(=O)[C@@H](C)NC(=O)[C@@H](C)NC(=O)CCOCCOCCOCCNC(=O)CCN2C(=O)C=CC2=O)[C@@H](O)[C@H](C)O1` (stereo partly shown) [QHL-090-epirubicin] yielded a solubility of over 10 mg/mL.

Consider `COc1cccc2c1C(=O)c1c(O)c3c(c(O)c1C2=O)C[C@@](O)(C(=O)CO)C[C@@H]3O[C@H]1C[C@H](NC(=O)[C@H](CC(C)C)NC(=O)[C@H](CC(N)=O)NC(=O)[C@H](C)NC(=O)[C@H](C)NC(=O)[C@H](CCC(=O)O)NC(=O)CCOCCOCCN2C(=O)C=CC2=O)[C@H](O)[C@H](C)O1` [QHL-021-DOX] (X3-EAANL-{Doxorubicin(3'-N)}), for which the solubility is over 20 mg/mL.

The compound `COc1cccc2c1C(=O)c1c(O)c3c(c(O)c1C2=O)C[C@@](O)(C(=O)CO)C[C@@H]3O[C@H]1C[C@H](NC(=O)[C@H](CC(C)C)NC(=O)[C@H](CC(N)=O)NC(=O)[C@H](C)NC(=O)[C@H](C)NC(=O)CCOCCOCCN2C(=O)C=CC2=O)[C@H](O)[C@H](C)O1` [QHL-009-DOX] (X3-AANL-{Doxorubicin(3'-N)}) showed a solubility of over 10 mg/mL.

`COc1cccc2c1C(=O)c1c(O)c3c(c(O)c1C2=O)C[C@@](O)(C(=O)CO)C[C@@H]3O[C@H]1C[C@H](NC(=O)[C@H](CC(C)C)NC(=O)[C@H](CC(N)=O)NC(=O)[C@H](C)NC(=O)[C@H](C)NC(=O)CCOCCOCCOCCOCCNC(=O)CCCN2C(=O)C=CC2=O)[C@H](O)[C@H](C)O1` [QHL-105-DOX] ({Butanoyl(4-maleimido)-PEG4}-AANL-{Doxorubicin(3'-N)}) gave a solubility of over 10 mg/mL.

For `C[C@H](NC(=O)CCOCCOCCOCCNC(=O)CCN1C(=O)C=CC1=O)C(=O)N[C@@H](C)C(=O)N[C@@H](CC(N)=O)C(=O)Nc1ccc(COC(=O)OCC(=O)[C@@]2(O)CCC3C4CCC5=CC(=O)C=C[C@]5(C)C4C(=O)C[C@@]32C)cc1` (stereo partly shown) [QHL-089-prednisone], the solubility was over 10 mg/mL.

As to `COc1cccc2c1C(=O)c1c(O)c3c(c(O)c1C2=O)C[C@@](O)(C(=O)CO)C[C@@H]3O[C@H]1C[C@H](NC(=O)[C@H](CC(C)C)NC(=O)[C@H](CC(N)=O)NC(=O)[C@H](C)NC(=O)[C@H](C)NC(=O)[C@H](CCC(=O)O)NC(=O)CCOCCOCCOCCOCCNC(=O)CCCN2C(=O)C=CC2=O)[C@H](O)[C@H](C)O1` [QHL-075-DOX] ({Butanoyl(4-maleimido)-PEG4}-EAANL-{Doxorubicin(3'-N)}), the solubility was over 25 mg/mL.

Consider `COc1cccc2c1C(=O)c1c(O)c3c(c(O)c1C2=O)C[C@@](O)(C(=O)CO)C[C@@H]3O[C@H]1C[C@H](NC(=O)[C@H](CC(C)C)NC(=O)[C@H](CC(N)=O)NC(=O)[C@H](C)NC(=O)[C@H](C)NC(=O)[C@H](CC(=O)O)NC(=O)CCOCCOCCNC(=O)CCCN2C(=O)C=CC2=O)[C@H](O)[C@H](C)O1` [QHL-066-DOX] ({Butanoyl(4-maleimido)-PEG2}-DAANL-{Doxorubicin(3'-N)}), for which the solubility was over 15 mg/mL.

Compound `COc1cccc2c1C(=O)c1c(O)c3c(c(O)c1C2=O)C[C@@](O)(C(=O)CO)C[C@@H]3O[C@@H]1C[C@H](NC(=O)C(CC(C)C)NC(=O)[C@@H](CC(N)=O)NC(=O)[C@@H](C)NC(=O)[C@@H](C)NC(=O)CCOCCOCCNC(=O)CCN2C(=O)C=CC2=O)[C@@H](O)[C@H](C)O1` (stereo partly shown) [QHL-087-epirubicin] came in with a solubility of over 10 mg/mL.

`COc1cccc2c1C(=O)c1c(O)c3c(c(O)c1C2=O)C[C@@](O)(C(=O)CO)C[C@@H]3O[C@H]1C[C@H](NC(=O)[C@H](CC(C)C)NC(=O)[C@H](CC(N)=O)NC(=O)[C@H](C)NC(=O)[C@H](C)NC(=O)CCOCCOCCOCCOCCOCCOCCNC(=O)CCCN2C(=O)C=CC2=O)[C@H](O)[C@H](C)O1` [QHL-108-DOX] ({Butanoyl(4-maleimido)-PEG6}-AANL-{Doxorubicin(3'-N)}) registered a solubility of over 20 mg/mL.

The compound `COc1cccc2c1C(=O)c1c(O)c3c(c(O)c1C2=O)C[C@@](O)(C(=O)CO)C[C@@H]3O[C@H]1C[C@H](NC(=O)[C@H](CC(C)C)NC(=O)[C@H](CC(N)=O)NC(=O)[C@H](C)NC(=O)[C@H](C)NC(=O)[C@H](CCC(=O)O)NC(=O)CCOCCOCCOCCOCCOCCOCCNC(=O)CCN2C(=O)C=CC2=O)[C@H](O)[C@H](C)O1` [QHL-057-DOX] ({Propanoyl(3-maleimido)-PEG6}-EAANL-{Doxorubicin(3'-N)}) returned a solubility of over 25 mg/mL.

Turning to `CC(C)CC(NC(=O)C(CC(N)=O)NC(=O)C(C)NC(=O)C(C)NC(=O)CCCCCN1C(=O)C=CC1=O)C(=O)N1CC2(C1)C(=O)[O][Pt-2]([NH3+])([NH3+])[O]C2=O` (stereo not shown) [QHL-138-N-CBP] ({Hexanoyl(6-maleimido)}-AANL-X4; configuration not given here), the solubility is over 20 mg/mL.

In turn, `COc1cccc2c1C(=O)c1c(O)c3c(c(O)c1C2=O)C[C@@](O)(C(=O)CO)C[C@@H]3O[C@H]1C[C@H](N)[C@H](O)[C@H](C)O1` [DOX, doxorubicin, reference compound] showed a solubility of under 1 mg/mL.

Compound `COc1cccc2c1C(=O)c1c(O)c3c(c(O)c1C2=O)C[C@@](O)(C(=O)CO)C[C@@H]3O[C@H]1C[C@H](NC(=O)[C@H](CC(C)C)NC(=O)[C@H](CC(N)=O)NC(=O)[C@H](C)NC(=O)[C@H](C)NC(=O)[C@H](CCC(=O)O)NC(=O)CCOCCOCCNC(=O)CCN2C(=O)C=CC2=O)[C@H](O)[C@H](C)O1` [QHL-039-DOX] ({Propanoyl(3-maleimido)-PEG2}-EAANL-{Doxorubicin(3'-N)}) displayed a solubility of over 20 mg/mL.

`CC(C)CC(NC(=O)C(CC(N)=O)NC(=O)C(C)NC(=O)C(C)NC(=O)CCCN1C(=O)C=CC1=O)C(=O)N1CC2(C1)C(=O)[O][Pt-2]([NH3+])([NH3+])[O]C2=O` (stereo not shown) [QHL-141-N-CBP] ({Butanoyl(4-maleimido)}-AANL-X4; configuration not given here) displayed a solubility of over 20 mg/mL.
